The BET-seq Pho4 binding data (Le et al. 2018)
The other results are listed elsewhere or left out. The energies were worked out here from pooled read counts, against the library average; single values are noisy.

target: T1, Pho4 (S. cerevisiae) (UniProt P07270); test: relative binding free energy (BET-seq); higher = weaker binding; conditions: reference: library average
T1 sequence: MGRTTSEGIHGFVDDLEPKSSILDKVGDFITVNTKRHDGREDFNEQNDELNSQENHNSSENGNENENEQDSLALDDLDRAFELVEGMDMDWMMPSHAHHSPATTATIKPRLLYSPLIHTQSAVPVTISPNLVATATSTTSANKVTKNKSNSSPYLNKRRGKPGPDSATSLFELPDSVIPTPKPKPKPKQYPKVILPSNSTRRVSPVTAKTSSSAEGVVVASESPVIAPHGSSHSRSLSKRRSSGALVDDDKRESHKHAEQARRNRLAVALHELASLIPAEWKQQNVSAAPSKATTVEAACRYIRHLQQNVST

| Sequence | relative binding free energy [kcal/mol] |
| --- | --- |
| TCGTGCACGTGTAGAG | 0.09 |
| AAGTACACGTGTGTCT | 0.13 |
| TTGTTCACGTGAAGTT | 0.42 |
| TTTTCCACGTGTTGGA | 0.11 |
| GGGGGCACGTGGAATA | -0.04 |
| GTCAGCACGTGAGAGG | 0.26 |
| ATAGTCACGTGGTAAA | -0.02 |
| GCGCGCACGTGGGGAT | -0.11 |
| CGGGCCACGTGAGGTT | 0.24 |
| AAGTGCACGTGTATTA | -0.02 |
| TGTCGCACGTGGTGTA | 0.01 |
| CTTCACACGTGGTGGG | 0.06 |
| TTTCGCACGTGTGTGT | -0.11 |
| GTATGCACGTGCGGGG | -0.09 |
| TTGGTCACGTGCGTTG | 0.14 |
| TTTGTCACGTGTCGAT | 0.08 |
| AGTCTCACGTGGTAGT | 0.15 |
| GGTTTCACGTGAAATT | 0.39 |
| AGTCGCACGTGATTGG | 0.08 |
| ATGAACACGTGGTAGG | -0.11 |
| TGGTCCACGTGGAGTG | -0.06 |

| Sequence | relative binding free energy [kcal/mol] |
| --- | --- |
| CAGGTCACGTGGTGGT | 0.04 |
| TTTCGCACGTGTATTG | -0.11 |
| AGTACCACGTGGTAGT | -0.23 |
| TATTACACGTGGTGAT | 0.04 |
| TCTGGCACGTGTTGGC | -0.04 |
| TCGTGCACGTGAAGAG | 0.35 |
| TGTGTCACGTGATTTT | 0.24 |
| TTAAACACGTGTTCGT | -0.09 |
| GCTCGCACGTGGTATG | -0.07 |
| TGATCCACGTGTGATG | 0 |
| GTTCGCACGTGTGCGC | 0.15 |
| GTTGACACGTGTCGTT | -0.09 |
| CGCGGCACGTGGGGGT | -0.21 |
| CCGGACACGTGTGGGG | 0.07 |
| GGTTTCACGTGATTTA | 0.4 |
| TTCATCACGTGTGTGT | 0.03 |
| TTTAACACGTGAGAGG | 0.32 |
| CGGTGCACGTGGTGAC | -0.13 |
| CGGTACACGTGCGGGG | -0.05 |
| TTTCTCACGTGAGTTA | 0.37 |
| TTTTTCACGTGCTCTT | 0.38 |

| Sequence | relative binding free energy [kcal/mol] |
| --- | --- |
| TGTTGCACGTGGTGCA | -0.14 |
| GGTGGCACGTGAGAAG | 0.21 |
| GTTTGCACGTGCTGGA | 0.02 |
| GTCGTCACGTGCAGGG | 0 |
| AAAAGCACGTGTGTGA | -0.01 |
| TTACTCACGTGTTTAA | 0.24 |
| GAAGGCACGTGGTGAT | -0.16 |
| CTGTTCACGTGCAGTT | 0.23 |
| AGACTCACGTGTATTT | 0.24 |
| ATGTACACGTGTGTTG | -0.04 |
| GGTCGCACGTGTACGT | 0.22 |
| AATGGCACGTGGGCGC | -0.16 |
| TCTGACACGTGAGGTG | 0.33 |
| ACTTCCACGTGTGGGG | 0.18 |
| GGGGTCACGTGTTCTG | 0.13 |
| GAGTTCACGTGCGAGG | 0.33 |
| TGGTTCACGTGACTAG | 0.3 |
| TATGACACGTGGTTTG | -0.07 |
| TGTAACACGTGGGAAA | 0.07 |
| TATTTCACGTGCTTTG | 0.2 |
| TGATTCACGTGATTCT | 0.24 |
